According to article PMC6305486, “Structural Insights into the FtsQ/FtsB/FtsL Complex, a Key Component of the Divisome” (Scientific Reports, 2018):

B1: FtsQ_([…]) F87A (domain or fragment)
chain: not shown
notes: also called FtsQB F87A mutant
B2: FtsQ_([…]) L57R (domain or fragment)
chain: not shown
notes: also called FtsQB L57R mutant

Target: T1, FtsB_(25–103) (E. coli, UniProt P0A6S5 25-103)
T1 construct: In the crystal only residues 61–95 were seen; the authors think that residues 25–60 may have been cleaved off during purification and crystallisation; also called C-terminal fragment of FtsB; not shown: GST, N-terminal, cleaved
T1 sequence (looked up): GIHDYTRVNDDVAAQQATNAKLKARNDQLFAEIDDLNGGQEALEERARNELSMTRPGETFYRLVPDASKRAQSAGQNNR
Experiment: SEC; analytical gel filtration, Superdex 200 10/300 GL, buffer B (20 mM Tris-HCl pH 8.0, 200 mM NaCl), 0.5 mL/min; high concentrations (101–370 μM); apparent Stokes radius compared with radii calculated from models
Details: both partners purified

| Binder | stoichiometry N |
| --- | --- |
| B1 | 1 FtsQ:FtsB ratio (2:2) |
| B2 | 1 FtsQ:FtsB ratio (2:2) |
